Hit rate of the full screen: of about 52,000 compounds, about 1,700 (3.3%) were called active. No stated cut-off is given here; in the data, active means survival mostly below about 52% (no sharp cut-off); inactive means mostly above about 56%. The list shows a part of the results.

In PubChem BioAssay AID463173 (ICCB-Longwood Screening Facility, Harvard Medical School, 2010) one finds survival data, which are given here for 89 compounds.

This test has as its system Wild type. In words: S. aureus survival, RN4220 and DeltatarO strains – OD600, teichoic acid synthesis inhibitors, primary screen (AID 463173). The note with it: S. aureus RN4220 wild type/DeltatarO growth, OD600, 18 h, stronger effect = lower value, screened at 18.75 µg/mL (by protocol).
Take `CSc1nn(CC(=O)Nc2ccc(C)cc2C)c(N)c1S(=O)(=O)c1ccc(Cl)cc1`: the survival is inactive: 70%.
Next, `COc1ccc(Br)cc1CNC(=O)C1CCN(c2nnc(-n3cccc3CNc3ccc(C)cc3)s2)CC1`: inactive: 79%; `COc1cc2c(C(=O)N3CCN(c4ccc(F)cc4)CC3)cn(CC(C)C)c(=O)c2cc1OC`: inactive: 72%; `CCN1/C(=C2/SC(=S)N(N)C2=O)Sc2ccccc21`: inactive: 103%.
As for `CCOc1ccccc1NC(=O)C1CCCN(S(=O)(=O)c2cccs2)C1` (centres undefined), the figure is inactive: 94%; as for `CCCCOc1ccccc1NC(=O)CC1Sc2ccccc2NC1=O` (centres undefined), inactive: 144%.
Regarding `COc1ccccc1Cc1nc2ccccc2nc1SCC(=O)N1CCCCC1`, the survival was inactive: 73%.
Next, `COc1ccccc1CN1CCC(C(=O)NCc2ccc(C)cc2)CC1`: inactive: 106%.
Next, `COc1ccc(NC(=O)c2sc3nc4n(c(=O)c3c2C)CCC4)c(OC)c1`: inactive: 96%.
Next, `CCOC(=O)N1CCN(c2ncc3c(n2)CC(c2ccc(OC)c(OC)c2)CC3=O)CC1` (centres undefined): inactive: 77%.
Regarding `COc1ccc(CCNC(=O)CCc2c(C)nc3cc(-c4ccc(Cl)cc4)nn3c2C)c(OC)c1`, the survival was inactive: 143%.
As for `Cc1noc(/C=C/c2ccccc2F)c1S(=O)(=O)N1CCC(C(=O)NCc2ccco2)CC1`, the figure is inactive: 136%; as for `CCOC(=O)c1ccccc1NC(=O)N1CCCn2nc(C)cc21`, inactive: 68%; as for `O=C(/C=C(/O)c1cccnc1)C(F)(F)F`, inactive: 86%.
Next, `COc1ccc(C(=O)Nc2cccc(OCc3cc(=O)n4c5c(sc4n3)CCCC5)c2)cc1OC`: inactive: 64%; `Cc1cc(C)cc(N2C(=O)CSC23C(=O)N(CC(=O)NC2CCCCC2)c2ccccc23)c1` (centres undefined): inactive: 115%.
Next, `CCc1ccc(NC(=O)Cn2c(=O)n(Cc3ccc(C)cc3)c(=O)c3cccnc32)cc1`: inactive: 93%; `CC(=O)N1CCCc2cc(S(=O)(=O)N3CCC(C(=O)N(C)C4CCCCC4)CC3)ccc21`: inactive: 81%.
On to `Cc1ccccc1C(=O)Nc1nnc(S(=O)(=O)N2CCc3ccccc32)s1`, for which the survival was inactive: 94%.
For `O=C(/C=N/O)Nc1cccnc1`, the survival is inactive: 86%.
Turning to `CN(c1ccc(C(=O)N2CCCCC2)cc1)S(C)(=O)=O`, the survival is inactive: 89%.
As for `O=C(CCS(=O)(=O)c1cc(Br)cc2c1N(C(=O)C1CC1)CC2)N1CCN(c2ccccc2)CC1`, the figure is inactive: 87%.
Next, `COc1ccc(OC)c(CCNC(=O)c2cnn(-c3ccccc3)c2-n2cccc2)c1`: inactive: 72%; `CNC(=O)C1CCN(C(=O)N2CC(C)Oc3ccc(Cl)cc32)CC1` (centres undefined): inactive: 84%.
Next, `Cc1nnc2c3ccccc3nc(N3CCN(c4ccccc4)CC3)n12`: inactive: 91%; `CCOC(=O)C1CCCN(C(=O)c2ccccc2NC(=O)c2nsc3ccccc23)C1` (centres undefined): inactive: 134%.
`CCOc1ccc(C2CC(=O)c3c([nH]c(C(=O)OCCOc4ccccc4)c3C)C2)cc1` (centres undefined): the survival was inactive: 85%.
As for `CN(C)N1C(=O)CC(N2CCCC2)C1=O` (centres undefined), the survival is inactive: 101%.
As for `O=C(c1ccc2c(c1)N(Cc1cccc(Cl)c1)C(=O)c1ccccc1S2(=O)=O)N1CCCC1`, the figure is inactive: 82%.
Next, `Cc1ccccc1Cn1nnc2c(=O)[nH]c(C3CCCN(C(=O)c4ccc(C(C)(C)C)cc4)C3)nc21` (centres undefined): inactive: 16%.
As for `N#Cc1c(-c2ccccc2)cc(-c2ccccc2)nc1SCC(O)CS(=O)(=O)Cc1ccccc1` (centres undefined), the figure is inactive: 81%; as for `O=C(Cn1cc(SCc2ccc(F)cc2)c2ccccc21)N1CCCCCC1`, inactive: 82%; as for `O=C(CCc1ccccc1)N(Cc1cccnc1)c1nc2ccc(F)cc2s1`, inactive: 71%.
`CCOCCCNC(=O)C1CCCN(c2ncnc3onc(C)c23)C1` (centres undefined): the survival was inactive: 54%.
Next, `CCOc1ccc(NC(=O)c2cnn(-c3ccccc3)c2-n2cccc2)cc1`: inactive: 61%.
Next, `CCN(CC)C(=O)CSc1nc2c(c(=O)n(C)c(=O)n2C)n1Cc1ccccc1`: inactive: 75%.
Consider `O=C(CN1CCOCC1)NN=C1CCCCC1`, for which the survival was inactive: 93%.
As for `Cc1ccccc1C(=O)Nc1cccc(OCc2cc(=O)n3c4c(sc3n2)CCCC4)c1`, the figure is inactive: 126%; as for `COc1ccc2c(c1)c1c(c(=O)n(-c3ccc(C)cc3)c(=O)n1CC(=O)c1ccc(Cl)cc1)n2C`, inactive: 68%; as for `COc1ccc(NC(=O)Cn2cc(S(=O)(=O)N3CCC(C)CC3)c3ccccc3c2=O)cc1Cl`, inactive: 78%.
With `CN(C)C(=O)CSc1n[nH]c(-c2ccccc2)n1`, the survival is inactive: 120%.
As for `Cc1ccc(C)c(CNS(=O)(=O)c2ccc3c(c2)C(C)(C)C(=O)N3C)c1`, the figure is inactive: 69%.
With `CC1CCN(S(=O)(=O)c2ccc3c(c2)N(CC(=O)NCCN(C)C)C(=O)CO3)CC1`, the survival is inactive: 76%.
For the compound `COc1ccc2c(CNCCc3ccccc3C)c(C(=O)O)n(Cc3ccccc3C)c2c1`, the survival was inactive: 92%.
Next, `COc1cccc(CNS(=O)(=O)c2ccc3[nH]c4c(c3c2)CCCCC4)c1`: inactive: 82%; `Cc1ccc(C)c(N2CCN(C(=O)c3ccc(-c4nc(COc5ccccc5)c(C)o4)cc3)CC2)c1`: inactive: 117%; `CCOc1ccc(NC(=O)c2ccc3[nH]c(C)cc(=O)c3c2)cc1`: inactive: 87%.
As for `CC(=O)N1CCc2c(sc3c2c(=O)n(-c2cccc(Cl)c2C)c(=O)n3Cc2ccccc2C)C1`, the figure is inactive: 79%; as for `CCOC(=O)/C(C#N)=C\c1ccc(-c2cccc(C(F)(F)F)c2)o1`, inactive: 86%.
Next, `O=C(CCCCn1c(=O)[nH]c2ccsc2c1=O)N1CCN(c2cccc(C(F)(F)F)c2)CC1`: inactive: 57%; `Cc1ccc2c(c1)cc1c(=O)n(CC(=O)N(C)c3ccccc3)nc(C)n12`: inactive: 115%.
With `COc1ccc(CN(Cc2ccco2)C(=O)COc2ccc(Cl)cc2C)cc1`, the survival is inactive: 83%.
As for `CCOC(=O)c1c(S(=O)(=O)N2CCCC(C(=O)NCc3ccc(F)cc3)C2)c(C)n(CC)c1C` (centres undefined), the figure is inactive: 93%; as for `COc1cccc(-c2nnc(SCC(=O)N3CCCCC3)o2)c1`, inactive: 111%; as for `COC(=O)C1C2C=CC3(CN(Cc4ccco4)C(=O)C13)O2` (centres undefined), inactive: 102%.
On to `O=C(OCc1cc(=O)n2nc(-c3cccs3)sc2n1)c1cccc(Cl)c1`, for which the survival was inactive: 53%.
For the compound `COc1ccc(CNC(=O)C2CCCN(S(=O)(=O)N(C)c3ccc(F)cc3)C2)cc1OC` (centres undefined), the survival was inactive: 86%.
As for `O=C(NC1CCCCC1)NC1CCN(Cc2nnnn2Cc2ccc(F)cc2)CC1`, the figure is inactive: 118%; as for `Cc1ccc(C)c(Cn2c(=O)n(CC3CCC(C(=O)N4CCOCC4)CC3)c(=O)c3sccc32)c1` (centres undefined), inactive: 69%.
Take `CCOC(=O)c1cccc(NC(=O)c2ccc3c(c2)nnn3CC)c1`: the survival was inactive: 87%.
As for `Cc1ccc(NC(=O)Cn2c(=O)c(C(F)(F)F)nc3ccccc32)cc1C`, the figure is inactive: 47%; as for `CCOC(=O)c1ccccc1NC(=O)Cn1nnc2sc3c(c2c1=O)CCCC3`, inactive: 84%; as for `Cc1ccc(C(C(=O)NC2CCCCC2)N(C)Cc2ccccc2)cc1` (centres undefined), active: -1%.
Next, `CCc1cccc(CC)c1NC(=O)CCS(=O)(=O)c1ccc(Br)s1`: inactive: 101%; `CC1(C)Cc2nc3sc(C(=O)NN)c(N)c3cc2CO1`: inactive: 107%; `Cc1oc2c(c1C(=O)Nc1ccc(F)c(F)c1)C1=NCCN1C=N2`: inactive: 78%.
As for `O=C(CCSc1nnc(-c2ccncc2)o1)Nc1ccccc1`, the figure is inactive: 108%; as for `CCOc1ccc(NC(=O)c2oc3ccccc3c2NC(=O)C2CCCCC2)cc1`, inactive: 84%; as for `COc1ccc2[nH]cc(NC(=O)N3CCN(C)CC3)c(=O)c2c1`, inactive: 114%.
As to `CCOC(=O)c1ccccc1Nc1nc2ccc(C)cc2n2nnnc12`, the survival is inactive: 90%.
Next, `Cc1cccc(C)c1NC(=O)c1nc(S(C)(=O)=O)ncc1N(Cc1ccc(C(C)(C)C)cc1)Cc1ccco1`: inactive: 85%.
As for `Cn1cc(-c2cc3n(n2)CCC(=O)N3CCCC(=O)NCc2ccc(F)cc2)c2ccccc21`, the figure is inactive: 78%.
As for `CCN1CCN(Cc2c(O)ccc3oc(C)c(C(=O)Nc4ccc(OC)cc4)c23)CC1`, the figure is inactive: 86%; as for `FC(F)(F)Sc1ccc2noc(-c3ccccc3)c2c1`, inactive: 115%.
`CC(C)CNC(=O)N1CCN(S(=O)(=O)c2ccc3c(ccn3C)c2)CC1`: the survival was inactive: 73%.
As for `Cc1ccc(NC(=O)CSc2nc3nc(C)c(Cc4ccccc4)c(C)n3n2)cc1`, the survival is inactive: 47%.
`Cc1ccc2oc3c(c(=O)c2c1)C(c1ccccc1F)N(c1ccccn1)C3=O` (centres undefined): the survival was inactive: 67%.
As for `CC(=O)Nc1ccc(-c2csc(N)n2)cc1`, the figure is inactive: 109%; as for `COc1ccc(-c2cc(C(F)(F)F)n3nc(C(=O)Nc4cc(C(F)(F)F)ccc4Cl)cc3n2)cc1OC`, inactive: 145%.
As for `COc1ccc(Cn2ccnc2SCC(=O)Nc2ccc3c(c2)OCO3)cc1`, the survival is inactive: 69%.
Next, `Cc1ccc(NC(=O)N2CC3CCCN3c3ccccc32)cc1C` (centres undefined): active: -2%; `Cc1ccc(NCc2nnc(SCC(=O)N3c4ccccc4CCc4ccccc43)o2)c(C)c1`: inactive: 119%.
Next, `CCCC(c1nnnn1CC1CCCO1)N(Cc1cccs1)Cc1cc2ccc(C)c(C)c2[nH]c1=O` (centres undefined): inactive: 104%.
As for `CN(C)c1ccc(CN(Cc2ccco2)C(=O)COc2ccc(F)cc2)cc1`, the figure is inactive: 95%; as for `Cc1cccc(C(=O)NCC(c2cccs2)S(=O)(=O)c2cccs2)c1` (centres undefined), inactive: 68%; as for `COc1ccccc1CCNC(=O)C(=O)NCC(c1ccco1)S(=O)(=O)c1cccs1` (centres undefined), inactive: 71%.
With `COc1ccc(C(=O)Nc2ccc(NC(=O)c3cccs3)cc2)cc1OC`, the survival is inactive: 87%.
For the compound `CCOC(=O)c1ccc(CN(Cc2ccc(C)cc2)S(=O)(=O)c2ccc(F)c(C(=O)Nc3ccc(C)c(F)c3)c2)cc1`, the survival was inactive: 65%.
Next, `Cc1ccc(S(=O)(=O)NC2(C(F)(F)F)NC(=O)N(c3ccc(F)cc3)C2=O)cc1` (centres undefined): inactive: 67%.
